Test results from PMC8310278.
No constants are given. Whether binding was seen depends on the method and setting. Binding seen in cells or lysates may run through a third protein. Some binding calls cover weakened binding; strength is not graded here. For part of these data: Tags and fused reporters may be left off the sequences shown.

Legend:
Assay in all cases: co-IP
[1] = target: T1, Viperin (virus inhibitory protein, endoplasmic reticulum-associated, interferon inducible) (human (endogenous in HT-29)) (UniProt Q8WXG1)
T1 sequence: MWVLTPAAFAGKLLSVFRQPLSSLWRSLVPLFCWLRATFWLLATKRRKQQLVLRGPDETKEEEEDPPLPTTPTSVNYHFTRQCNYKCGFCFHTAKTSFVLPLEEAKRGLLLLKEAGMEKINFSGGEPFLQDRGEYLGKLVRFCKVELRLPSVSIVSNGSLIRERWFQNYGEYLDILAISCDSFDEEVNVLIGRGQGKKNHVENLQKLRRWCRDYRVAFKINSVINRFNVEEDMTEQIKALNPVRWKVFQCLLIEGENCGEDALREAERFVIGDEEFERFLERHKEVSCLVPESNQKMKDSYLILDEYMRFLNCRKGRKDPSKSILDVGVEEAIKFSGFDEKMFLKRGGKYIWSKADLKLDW

[2] = target: Full-length NSP4 of RV-SA11, expressed from pcDNA6/V5-His B (simian rotavirus strain SA11) (UniProt A2T3Q0)
[3] = target: T2, FLAG-tagged viperin ΔN-42 (lacking an N-terminal domain) (human) (UniProt Q8WXG1)
T2 sequence: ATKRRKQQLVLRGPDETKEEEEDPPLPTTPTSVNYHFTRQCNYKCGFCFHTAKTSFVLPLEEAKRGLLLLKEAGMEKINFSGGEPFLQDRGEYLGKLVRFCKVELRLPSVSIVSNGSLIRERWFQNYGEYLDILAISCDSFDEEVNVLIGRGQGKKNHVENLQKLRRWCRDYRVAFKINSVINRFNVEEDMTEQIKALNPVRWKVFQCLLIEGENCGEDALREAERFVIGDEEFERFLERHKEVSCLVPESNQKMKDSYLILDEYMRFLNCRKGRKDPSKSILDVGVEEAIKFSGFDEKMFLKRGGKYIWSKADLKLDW

[4] = target: FLAG-tagged viperin ΔC-319 (lacking both a radical SAM domain and a C-terminal domain) (human) (UniProt Q8WXG1)
[5] = target: T3, FLAG-tagged full-length viperin (wild type) (human) (UniProt Q8WXG1)
T3 sequence: T1 sequence

[6] = target: FLAG-tagged viperin ΔN-210 (lacking both an N-terminal domain and a radical SAM domain) (human) (UniProt Q8WXG1)
[7] = target: FLAG-tagged viperin ΔC-151 (lacking a C-terminal domain) (human) (UniProt Q8WXG1)
[8] = target: Rotaviral non-structural protein 4 (NSP4) of RV-SA11, from infection (simian rotavirus strain SA11) (UniProt A2T3Q0)

Molecule: Rotaviral non-structural protein 4 (NSP4) of RV-SA11, from infection (from UniProt A2T3Q0 1-175)
- binding [1]: binds

Molecule: FLAG-tagged viperin ΔC-151 (lacking a C-terminal domain) (from UniProt Q8WXG1 1-210) (domain or fragment)
- binding [2]: no binding

Molecule: Full-length NSP4 of RV-SA11, expressed from pcDNA6/V5-His B (from UniProt A2T3Q0 1-175)
- binding [3]: binds
- binding [4]: no binding
- binding [5]: binds
- binding [6]: no binding
- binding [7]: no binding

Molecule: FLAG-tagged viperin ΔN-210 (lacking both an N-terminal domain and a radical SAM domain) (from UniProt Q8WXG1 211-361) (domain or fragment)
- binding [2]: no binding

Molecule: FLAG-tagged viperin ΔC-319 (lacking both a radical SAM domain and a C-terminal domain) (from UniProt Q8WXG1 1-42) (domain or fragment)
- binding [2]: no binding

B1: FLAG-tagged viperin ΔN-42 (lacking an N-terminal domain) (domain or fragment, UniProt Q8WXG1 43-361)
chain: T2 sequence
- binding [2]: binds

B2: Viperin (virus inhibitory protein, endoplasmic reticulum-associated, interferon inducible) (protein, UniProt Q8WXG1 1-361)
chain: T1 sequence
- binding [8]: binds

B3: FLAG-tagged full-length viperin (wild type) (protein, UniProt Q8WXG1 1-361)
chain: T1 sequence
- binding [2]: binds
